According to article PMC4336329 (PLoS ONE, 2015):
Hit rate of the full screen: of about 310,000 compounds, about 2,200 (0.71%) showed an effect of 50% or more. Effects have a minus sign here. This is one part of the list.

What follows are molecules tested against human ether-à-go-go-related gene (hERG) potassium channel (human, UniProt Q12809) (assay: primary screen, population patch clamp on CHO cells stably expressing hERG).
Sequence of human ether-à-go-go-related gene (hERG) potassium channel (Q12809 whole entry, looked up): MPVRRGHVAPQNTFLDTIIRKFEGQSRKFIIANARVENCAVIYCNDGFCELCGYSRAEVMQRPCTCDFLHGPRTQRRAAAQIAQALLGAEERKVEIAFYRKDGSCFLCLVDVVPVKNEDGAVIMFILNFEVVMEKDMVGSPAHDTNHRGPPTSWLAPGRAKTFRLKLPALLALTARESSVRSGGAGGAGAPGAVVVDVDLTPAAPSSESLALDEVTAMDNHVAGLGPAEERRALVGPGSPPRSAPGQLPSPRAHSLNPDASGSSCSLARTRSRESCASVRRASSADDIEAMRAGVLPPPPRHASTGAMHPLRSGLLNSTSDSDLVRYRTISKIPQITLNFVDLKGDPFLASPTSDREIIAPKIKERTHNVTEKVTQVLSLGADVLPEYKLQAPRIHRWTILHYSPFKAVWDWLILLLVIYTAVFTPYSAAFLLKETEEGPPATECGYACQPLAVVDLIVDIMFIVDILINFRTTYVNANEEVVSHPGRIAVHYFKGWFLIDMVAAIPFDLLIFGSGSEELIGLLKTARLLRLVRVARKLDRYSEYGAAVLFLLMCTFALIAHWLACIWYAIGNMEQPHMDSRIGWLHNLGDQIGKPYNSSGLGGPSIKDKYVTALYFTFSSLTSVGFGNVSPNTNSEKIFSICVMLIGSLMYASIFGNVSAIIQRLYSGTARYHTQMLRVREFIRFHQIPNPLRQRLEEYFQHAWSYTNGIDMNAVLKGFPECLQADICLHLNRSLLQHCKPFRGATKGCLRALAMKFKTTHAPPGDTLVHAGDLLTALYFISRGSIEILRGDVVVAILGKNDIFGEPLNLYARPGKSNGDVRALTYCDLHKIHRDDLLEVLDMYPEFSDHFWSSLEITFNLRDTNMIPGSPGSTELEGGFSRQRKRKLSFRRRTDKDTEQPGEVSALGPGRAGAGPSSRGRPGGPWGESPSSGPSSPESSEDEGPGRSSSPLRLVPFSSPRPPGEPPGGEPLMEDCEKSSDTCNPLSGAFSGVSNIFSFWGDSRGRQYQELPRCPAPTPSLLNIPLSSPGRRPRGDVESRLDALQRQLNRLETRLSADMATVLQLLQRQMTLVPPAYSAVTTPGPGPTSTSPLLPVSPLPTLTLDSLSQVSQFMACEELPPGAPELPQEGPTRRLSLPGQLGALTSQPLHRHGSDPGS
`O=C1C(CCS(=O)c2ccccc2)C(=O)N(c2ccccc2)N1c1ccccc1` (centres unmarked) was tested, and the “hERG current change (%, negative = inhibition) at 1uM” value was 16.9%.
`COC(=O)c1sccc1NC(=O)Cn1cnc2c1c(=O)n(C)c(=O)n2C` was tested, and the “hERG current change (%, negative = inhibition) at 1uM” value was 8.94%.
With `CC(C)(C)OC(=O)NN=C(c1ccc(O)cc1)c1ccc(O)cc1` the “hERG current change (%, negative = inhibition) at 1uM” value was 14.3%.
For `COc1ccc(OC)c(NC(=O)c2ccccc2NS(=O)(=O)c2cccc3cccnc23)c1`, the “hERG current change (%, negative = inhibition) at 1uM” value was 14%.
For `CCCCN(C(=O)CNC(=O)c1ccco1)C(C(=O)NC1CCCC1)c1ccc(OC)cc1` (centres unmarked), the “hERG current change (%, negative = inhibition) at 1uM” value was -7%.
For `O=C(CN1CCN(Cc2ccccc2Cl)C1=O)NC1CCCCCCC1`, the “hERG current change (%, negative = inhibition) at 1uM” value was 9.62%.
With `CS(=O)(=O)N1CCN(c2ccc(NC(=O)c3ccccc3)cc2)CC1` the “hERG current change (%, negative = inhibition) at 1uM” value was -16.3%.
With `O=S(=O)(c1ccc(Oc2ccc(S(=O)(=O)N3CCOCC3)cc2)cc1)N1CCOCC1` the “hERG current change (%, negative = inhibition) at 1uM” value was 13.7%.
With `Cl.Cn1c(=O)c2c(ncn2CCCC(=N)N2CCOCC2)n(C)c1=O` the “hERG current change (%, negative = inhibition) at 1uM” value was 15.4%.
For `Cn1c(C(=O)N[C@@H](Cc2ccccc2)C(=O)O)cc2cc(F)ccc21`, the “hERG current change (%, negative = inhibition) at 1uM” value was 14.7%.
In the case of `O=c1cc(N2CCc3ccccc3C2)[nH]c(=O)n1-c1ccccc1Cl`, the “hERG current change (%, negative = inhibition) at 1uM” value was 17.6%.
`CCn1c(CCNC(=O)c2cccs2)nnc1SCC(=O)Nc1cccc(Cl)c1` was tested, and the “hERG current change (%, negative = inhibition) at 1uM” value was -21.1%.
In the case of `COc1ccc(CCNC(=O)c2cccc(NC(=O)CC3SC(N4CCCCC4)=NC3=O)c2)cc1OC` (centres unmarked), the “hERG current change (%, negative = inhibition) at 1uM” value was 7.29%.
With `CCC(=O)N/C(=N/c1nc(C)cc(C)n1)Nc1ccc(OC)cc1` the “hERG current change (%, negative = inhibition) at 1uM” value was 10.1%.
For `COc1ccc(C(=O)N2CCN(C)C(=O)[C@@H]2C)cc1OC1CCN(C(C)=O)CC1`, the “hERG current change (%, negative = inhibition) at 1uM” value was 14.6%.
For `Cc1cc(NCCCCO)n2c(nc3ccccc32)c1C#N`, the “hERG current change (%, negative = inhibition) at 1uM” value was -5.67%.
With `CC(=O)c1cc(O)c2ccccc2c1O` the “hERG current change (%, negative = inhibition) at 1uM” value was 12.2%.
With `CCCN1CN(Cc2ccccc2)CNC1=S` the “hERG current change (%, negative = inhibition) at 1uM” value was 10.1%.
`CC(C)(C)c1cc(C(=S)N2CCN(CCO)CC2)cc(C(C)(C)C)c1O` was tested, and the “hERG current change (%, negative = inhibition) at 1uM” value was -3.92%.
With `CCCNC(=O)COC(=O)c1ccc(OCC(=O)Nc2ccccc2OC)c(OC)c1` the “hERG current change (%, negative = inhibition) at 1uM” value was 14.4%.
With `O=C(O)c1ccc2c(=O)n3c(nc2c1)/C(=C/c1cccc(Cl)c1Cl)CC3` the “hERG current change (%, negative = inhibition) at 1uM” value was 13.8%.
`COc1ccc(C2(c3ccc(OC)cc3)NC(=O)N(CC(=O)Nc3ccccc3)C2=O)cc1` was tested, and the “hERG current change (%, negative = inhibition) at 1uM” value was 2.32%.
For `Cc1ccc(Nc2ncnc3sc(C)c(C)c23)cc1`, the “hERG current change (%, negative = inhibition) at 1uM” value was 13.1%.
In the case of `O=C(NC1CCCC1)c1noc2c1CCCCC2`, the “hERG current change (%, negative = inhibition) at 1uM” value was 13.8%.
With `CCc1ccccc1NC1=NCC(=O)N1Cc1ccc(OC)cc1.Cl` the “hERG current change (%, negative = inhibition) at 1uM” value was 6.01%.
In the case of `COc1ccccc1NC(=O)C(C)NS(=O)(=O)c1ccccc1` (centres unmarked), the “hERG current change (%, negative = inhibition) at 1uM” value was 0.28%.
`Cc1noc(C)c1C(=O)Nc1ccccc1C(=O)NCCc1ccccc1` was tested, and the “hERG current change (%, negative = inhibition) at 1uM” value was 8.16%.
`O=C(Nc1ccc2c(c1)OCO2)c1ccc(COc2ccc3c(c2)CCC3)o1` was tested, and the “hERG current change (%, negative = inhibition) at 1uM” value was 7.02%.
For `C/C(=N/NC(=O)c1cnccn1)c1cccs1`, the “hERG current change (%, negative = inhibition) at 1uM” value was 7.15%.
In the case of `O=C(CN1CCN(c2ccccc2)CC1)N1CCc2ccccc21`, the “hERG current change (%, negative = inhibition) at 1uM” value was 13.4%.
With `CC(=O)c1c(C)[nH]c(C(=O)OCC(=O)N2c3ccccc3NC(=O)C2(C)C)c1C` the “hERG current change (%, negative = inhibition) at 1uM” value was 4.1%.
In the case of `C/C(=N\O)c1cc(Cl)cc(Cl)c1O`, the “hERG current change (%, negative = inhibition) at 1uM” value was 11.8%.
For `Cc1ccc(C)c(OCCC(=O)OCC(=O)c2ccc3c(c2)NC(=O)CO3)c1`, the “hERG current change (%, negative = inhibition) at 1uM” value was 10.5%.
`O=C(COc1ccc(Cl)cc1)Nc1nc(-c2ccc(S(=O)(=O)N3CCOCC3)cc2)cs1` was tested, and the “hERG current change (%, negative = inhibition) at 1uM” value was 10.4%.
For `CCOC(=O)c1ccc(N/C(=N\S(=O)(=O)c2ccc(F)cc2F)c2ccccc2)cc1`, the “hERG current change (%, negative = inhibition) at 1uM” value was 6.54%.
`Nc1c(Cl)cc(Cl)cc1C(=O)OCC(=O)NC1CC1` was tested, and the “hERG current change (%, negative = inhibition) at 1uM” value was -0.817%.
`Cc1cc(=O)oc2c3c(cc(OCC(=O)NC(Cc4ccc(Cl)cc4)C(=O)O)c12)OC(C)(C)CC3` (centres unmarked) was tested, and the “hERG current change (%, negative = inhibition) at 1uM” value was 12.2%.
With `COc1ccc(/C=N\Nc2ccccc2[N+](=O)[O-])c(C(=O)O)c1OC` the “hERG current change (%, negative = inhibition) at 1uM” value was -3.48%.
With `CCN(CC)C(C(=O)NC1CCCCC1)c1ccc(C)cc1` (centres unmarked) the “hERG current change (%, negative = inhibition) at 1uM” value was 3.7%.
In the case of `COc1ccc(S(=O)(=O)Cc2ccc(C(=O)N3CCN(c4cccc(C)c4C)CC3)o2)cc1`, the “hERG current change (%, negative = inhibition) at 1uM” value was 1.22%.
In the case of `COCCNC(=S)N(CCO)Cc1cc2cc3c(cc2[nH]c1=O)OCCO3`, the “hERG current change (%, negative = inhibition) at 1uM” value was 7.15%.
For `CCOc1ccc(NC(=O)C2CCCN2C(=O)OCc2ccccc2)cc1` (centres unmarked), the “hERG current change (%, negative = inhibition) at 1uM” value was 0.626%.
For `CCOC(=O)c1ccc(-n2c(C)ccc2C)cc1`, the “hERG current change (%, negative = inhibition) at 1uM” value was 9.07%.
`O=C(O)/C=C/c1cn(Cc2ccccc2)nc1-c1ccc(Cl)cc1` was tested, and the “hERG current change (%, negative = inhibition) at 1uM” value was 13%.
In the case of `O=C(NCCN1CCOCC1)C(=O)NCC1OCCN1S(=O)(=O)c1ccc(F)cc1` (centres unmarked), the “hERG current change (%, negative = inhibition) at 1uM” value was 2.25%.
For `COc1ccc(S(=O)(=O)Nc2ccccc2SC)cc1C`, the “hERG current change (%, negative = inhibition) at 1uM” value was 1.39%.
For `CC(C(=O)Nc1cc(C(F)(F)F)ccc1N1CCOCC1)N1C(=O)C2CC=CCC2C1=O` (centres unmarked), the “hERG current change (%, negative = inhibition) at 1uM” value was 7.8%.
With `CC(C)c1cc(C(=O)OCC(=O)NC(=O)NCc2ccco2)c(O)c(C(C)C)c1` the “hERG current change (%, negative = inhibition) at 1uM” value was 11%.
`Cc1nccn1CCCNC(=O)CC1C(=O)NCCN1Cc1ccccc1C(F)(F)F` (centres unmarked) was tested, and the “hERG current change (%, negative = inhibition) at 1uM” value was 9.52%.
`O=[N+]([O-])c1ccc(SCc2ccncc2)nc1` was tested, and the “hERG current change (%, negative = inhibition) at 1uM” value was 24.9%.
In the case of `CCO.N#CC1=C(N)Oc2c(oc(CO)cc2=O)C1c1ccccc1[N+](=O)[O-]` (centres unmarked), the “hERG current change (%, negative = inhibition) at 1uM” value was 0.136%.
`CN(c1ccccc1)S(=O)(=O)c1nnc(NC(=O)COc2ccccc2)s1` was tested, and the “hERG current change (%, negative = inhibition) at 1uM” value was 15.5%.
In the case of `COCCn1c(SCC(=O)c2ccc3c(c2)OCCO3)nnc1C(C)C`, the “hERG current change (%, negative = inhibition) at 1uM” value was 4.98%.
For `O=C(CN1CCC(NC(=O)Cc2ccccc2)CC1)Nc1ccccc1Br`, the “hERG current change (%, negative = inhibition) at 1uM” value was 2.03%.
With `CCOC(=O)C1(CCCc2ccccc2)CCN(C2CCCC2)CC1` the “hERG current change (%, negative = inhibition) at 1uM” value was -66.1%.
For `Cc1cc(C)c(NS(=O)(=O)c2ccc(Cl)c(C(=O)O)c2)c(C)c1`, the “hERG current change (%, negative = inhibition) at 1uM” value was 7.97%.
